Source: ChEMBL document CHEMBL1157539, “Thousands of chemical starting points for antimalarial lead identification” (Nature, 2010)
The full ranking holds about 13,000 compounds; the median of “IFI” is about 4, and the highest 2% start at about 17. This is one part of the list.

Assay: GSK_TCMDC: Inhibition Frequency Index (IFI). The number of non-kinase HTS assays where a compound showed > 50 % inhibition, expressed as a percentage of the number of such assays in which the compound was tested (-0 is zero)
Type: functional

Structure (SMILES) | IFI [%]
CCNc1cc(C(=O)N[C@@H](Cc2ccccc2)[C@H](O)CNC2CCC(C)(C)CC2)cc(N2CCCCS2(=O)=O)c1 | 3.65
CN(C)CCCNCCS(=O)(=O)c1cccc(Nc2ccc(-c3cccc(N(C)C)c3)cn2)c1 | 5.45
CN(Cc1ccccc1)C1CCCN(c2cc(NC(=O)c3ccc(F)cc3)ccn2)C1 (configuration not stated) | 5.56
Cc1cc(N[C@@H](Cc2ccccc2)C(=O)Nc2ccccc2)nc(NCCc2cccnc2)n1 | 2.44
COc1cccc(NC(=O)Cn2c(C)c(C#N)c3ccccc32)c1 | -0
CCNc1cc(C)nc(Nc2ccc(NC(=O)c3ccccc3Br)cc2)n1 | 11.1
FC(F)(F)c1cccc(C=NNc2nc3ccccc3[nH]2)c1 | 2.9
COc1cccc(CN2CCCN(Cc3cccc(NC(=O)c4cc5ccccc5s4)c3)CC2)c1 | 6.92
c1ccc(-n2ncc(CNCc3ccc(-c4cccc(-c5nc6ccccc6[nH]5)c4)cc3)n2)cc1 | 7.62
N=C(N)c1ccc(NCc2cccc(C(=O)O)c2)cc1 | 0
CC(=O)N(C)C1CCN(Cc2cccc(-c3ccc(-c4nc5cc(F)ccc5[nH]4)cc3)c2)C1 (configuration not stated) | 1.43
Cc1cc(N2CCCN(CC3CCCCC3)CC2)nc(Nc2ccc(Br)cc2)n1 | 5.56
CNC(=O)c1ccccc1Nc1nc(Nc2ccc(C(=O)O)cc2)ncc1Cl | -0
Cc1sc(NC(=O)c2ccc([N+](=O)[O-])cc2Cl)c(C(N)=O)c1C | 0.75
CC(CN1CCN(C)CC1)C(=O)Nc1cccc(-c2ccc(-c3nc4ccccc4[nH]3)cc2)c1 (configuration not stated) | 5.5
CCCN(CCCCCCN(CCC)CCc1ccc(O)c(O)c1)CCc1ccc(O)cc1 | 5.63
CCN(CCCN1CCCCC1)c1cc(C)nc(Nc2cc(F)cc(F)c2)n1 | 1.28
CC(=O)Nc1ncc(C(=O)Nc2cccc(-c3ccc(-c4nc5cc(C(F)(F)F)ccc5[nH]4)s3)c2)s1 | 4.63
COc1ccc2nccc([C@@H](O)CN3CCC(NC(=O)C(c4ccccc4C)N4CCC(Cc5ccccc5)CC4)CC3)c2c1 (some centres not stated) | 1.48
c1ccc2c(Nc3ccc(Oc4ccc(Nc5c6ccccc6nc6ccccc56)cc4)cc3)c3ccccc3nc2c1 | 3.68
O=C(Cc1cccc(Cl)c1)Nc1cccc(-c2c[nH]c3nc(Nc4ccccc4)ncc23)c1 | 0.76
Cc1ccc(F)c(C(=O)Nc2cccc(-c3nn4ccccc4c3-c3ccnc(Nc4cccc(F)c4)n3)c2)c1F | 2.13
Fc1ccc2c(NN=Cc3ccc(Cl)cc3)ccnc2c1 | 0.74

Structure (SMILES) | IFI [%]
COc1ccc(NC(=O)NC2CCN(c3ccnc4cc(Cl)ccc34)C2)cc1 (configuration not stated) | -0
Fc1ccc(Nc2ccnc3cc(I)ccc23)c(Cl)c1 | 5.04
CC1(C)NC(N)=NC(=N)N1OCCOc1ccc2ccccc2c1 | 4.29
COc1ccc2ncc(Cl)c([C@@H](O)CN3CCC(NCc4cc5c(cn4)OCCO5)CC3)c2c1 | 1.77
COc1c(C2CCN(CCN3CCC(NC(=O)c4ccc(-c5ccc(C(F)(F)F)cc5)cc4)CC3)CC2)ccc2c1CCCC2 | 1.85
CN1CCN(Cc2ccc(-c3ccc4c(Nc5ccc(Cl)cc5F)ccnc4c3)o2)CC1 | 8.57
CCCOc1ccc(-c2nonc2NC(=O)c2cccc(OC)c2)cc1OCCC | -0
C[C@H](Cc1ccc(OCCCCCCOc2ccc(C[C@@H](C)NC[C@H](O)c3cccc(Cl)c3)cc2)cc1)NC[C@H](O)c1cccc(Cl)c1 | 16.9
Nc1c(Cl)cc(C(O)CNCCCCCOCCc2ccc3ccccc3n2)cc1Cl (configuration not stated) | 4.62
Cc1ccc2cc(C3NC(=O)c4ccccc4N3)c(Cl)nc2c1 (configuration not stated) | 0
CC1(C)N=C(N)N=C(N)C1c1ccc(Cl)c(Cl)c1 (configuration not stated) | 1.43
C=CCC(C(=O)Nc1ccnc2ccc(OC)cc12)C1CCN(CCCCCCC)CC1 (configuration not stated) | 1.52
Cn1cccc1CCNCc1ccc(-c2cccc(-c3nc4cc(F)ccc4[nH]3)c2)cc1 | 0.97
Cc1cccc2nc(-c3ccc(-c4ccc(CN5CCCC(N)C5)cc4)s3)[nH]c12 (configuration not stated) | 5.56
O=C1NC(=O)C(c2cccc(NC(=O)c3ccncc3)c2)=C1c1ccccc1 | 2.99
Cc1cc(O)nc(NC(=N)NOCCCc2ccccc2)n1 | 0
Cc1ccc(NC(=O)c2cccc(CN3CCCN(CC4CCCCC4)CC3)c2)cc1F | 5.67
CN1CCN(c2cccc(-c3nnc(-c4cccc(OCC(=O)NCc5ccc(C(F)(F)F)cc5)c4)o3)c2)CC1 | 2.17
Cc1cc(Nc2ccc3ccccc3c2)n2ncnc2n1 | 2.84
CCOc1ccc2c(=NN=Cc3cc(OC)c(OC)cc3OC)cc(C)[nH]c2c1 | 2.19
COc1ccc(-c2cccc(CNC3CCN(C)CC3)c2)cc1S(=O)(=O)NCc1ccccc1 | 2.73
CCN(CCC1(c2ccc(Cl)c(Cl)c2)CN(C(=O)c2cc(OC)c(OC)c(OC)c2)CCO1)C1CC2c3ccccc3CC21 (configuration not stated) | 4.08
OC(CNC1CCCCC1)Cn1c2ccc(Br)cc2c2cc(Br)ccc21 (configuration not stated) | 6.29

Structure (SMILES) | IFI [%]
O=C(Cc1c[nH]cn1)Nc1ccc(-c2ccc(-c3nc4cc(F)ccc4[nH]3)cc2)cc1 | 12.7
O=C1OC2(CN1CC1CCN(Cc3ccc(-n4ccnc4)cc3)C1)c1ccccc1-c1ccccc12 (configuration not stated) | 7.09
CC(c1cccc(S(=O)(=O)NCc2ccc(Cl)cc2Cl)c1)N1CCC(N2CCCCC2)CC1 (configuration not stated) | 10.5
O=C(CCC1CCCCC1=O)c1ccccc1 (configuration not stated) | 0.72
Cc1ccc(Nc2nc(C)cc(Nc3cccc(NS(C)(=O)=O)c3)n2)cc1 | 6.15
Cc1[nH]c(C)c(-c2ccc(OCc3ccc(OC(F)(F)F)cc3)nc2)c(=O)c1Cl | 3.74
N=C(N)c1ccc(OCc2cccc(COc3ccc(C(=N)N)cc3I)c2)c(I)c1 | 12.1
CC(=O)Nc1ccc(S(=O)(=O)N2CCN(c3nc(NC4CCCC4)c4ccccc4n3)CC2)cc1 | 2.04
O=S(=O)(NCCN1CCCC1)c1ccc(-c2cccc(CNC3Cc4ccccc4C3)c2)cc1 | 8.93
CC(=O)Nc1ncc(C(=O)Nc2cccc(-c3cccc(-c4nc5cc(F)ccc5[nH]4)c3)c2)s1 | 3.64
Cc1cc(N[C@@H](Cc2ccccc2)C(=O)NC2CCCC2)nc(NCCCOC(C)C)n1 | 6.82
CCCCn1c(=N)c(C(=O)NCc2cccnc2)cc2c(=O)n3cccc(C)c3nc21 | 3.57
O=C(Nc1ccccc1)Nc1ccc(-n2ccc(C(F)(F)F)n2)cc1 | 3.31
Clc1cc(Nc2ncnc3cc(C#C[C@H]4CCCN4)sc23)cc2nc(Cc3ccccc3)[nH]c12 | 10.1
COc1cccc2cc(C(=O)N[C@@H](CC(C)C)C(=O)N[C@H](/C=N/NC(=O)N3CCN(C)CC3)CCc3ccccc3)oc12 | 4.59
O=C1c2ccccc2CN1CCCN1CCC(Oc2ccc(F)cc2)CC1 | 3.01
COc1ccc(N2CCN(CCCCNC(=O)c3ccc(NC(=O)c4cc(Cl)cc(Cl)c4)cc3)CC2)c(OC)c1 | 5.31
CCCCCCCN1CCC(NC(=O)Nc2ccnc3ccc(OC)cc23)C(CO)C1 (configuration not stated) | 6.3
Cc1cccc2nc(-c3ccc(-c4cccc(NC(=O)Nc5ccc6c(c5)OCO6)c4)cc3)[nH]c12 | 6.06
O=C(Nc1ccc2c(c1)CCN2C1CCN(Cc2cccc(F)c2F)C1)c1ccco1 (configuration not stated) | -0
O=C(Nc1ccc(Cl)c(Cl)c1)N1CCc2ccc(OCCCN3CCCCC3)cc2CC1 | 9.09
COc1ccc(CNC2CCCC2)cc1-c1ccc(S(=O)(=O)NCCN2CCCC2)s1 | 5.61
O=C(Nc1ccc(-c2ccccc2)cc1)Nc1ccc2c(c1)CCNCC2 | 9.84

Structure (SMILES) | IFI [%]
CC(C)CNCc1ccc(-c2ccc(CN(C(=O)NCCc3ccccc3)C3CCN(Cc4ccccc4)CC3)cc2)cc1 | 6.52
Cc1cccc2nc(-c3ccc(-c4ccc(CNCc5cccc(N)c5)cc4)s3)[nH]c12 | 10.5
O=C(Nc1cc(C(F)(F)F)ccc1Cl)c1ccc(Cn2cc(Br)cn2)cc1 | 7.55
CCOc1cc(Cc2cnc(N)nc2N)cc(Br)c1OC | 0.74
CCCc1ccc(C(=O)N2C(c3nccs3)C(C(N)=O)CC2(CC(C)C)C(=O)O)cc1 (configuration not stated) | -0
COc1ccc(S(=O)(=O)Nc2cc(Br)cc3c2OCCC3)cc1N1CCN(C(=O)C(Cl)(Cl)Cl)CC1 | 0
O=C(/C=C/c1ccc(Cl)c(Cl)c1)NCCCCCN1CCC(NC(=O)c2cc(Cl)ccc2F)CC1 | 6.9
N=C1N=C(N)NCN1OCc1ccc(Cl)c(Cl)c1 | 0.72
N#Cc1ccc(CN2CCC(NC(=O)c3ccc(-c4nnc(-c5cccc6ccccc56)o4)cc3)CC2)cc1 | 7.8
Cc1c(Cc2ccccc2Cl)cnc2nc(N)nc(N)c12 | 2.94
O=C(/C=C/c1ccc(Cl)c(Cl)c1)NCCCCCN1CCC(NC(=O)NC2CCCCCC2)CC1 | 8.55
Oc1ccc(CCCc2cc(Oc3c(I)cc(CCc4ncc[nH]4)cc3I)ccc2O)cc1 | 10.3
O=C(NCc1cccc(C(F)(F)F)c1)C(c1cc2ccccc2o1)N1CCN(C(c2ccccc2)c2ccccc2)CC1 (configuration not stated) | 0.72
Oc1ccc(CN2CCC(NCc3cccc(C(F)(F)F)c3)CC2)cc1 | 1.34
Cc1ccccc1Oc1nc2ccccc2nc1SCC(=O)NC(C)C | 6.82
Cc1ccc(-c2nnc(-c3ccc(C(=O)NC4CCN(Cc5ccc(C#N)cc5)CC4)cc3)o2)cc1Br | 7.75
CCOc1cc(C(=O)Nc2ccccc2N2CCN(S(C)(=O)=O)CC2)cc(OCC)c1OCC | -0
COc1ccc(-c2ccc(CN(C)C3CCC(NC(=O)c4cc5ccccc5[nH]4)CC3)cc2)cn1 (configuration not stated) | 4.35
COc1ccccc1-c1[nH]c2ccccc2c1CN1CCC(c2c(C)cccc2C)CC1 | 6.67
Oc1cc(Nc2ccnc3cc(-c4cccc(CN5CCCCC5)c4)ccc23)c(F)cc1Cl | 8.96
COc1ccc2nc3cc(Cl)ccc3c(NCCCCN)c2c1 | 4.38
COc1cc2ccccc2c(OC)c1CCNCCCCNCCc1c(OC)cc2ccccc2c1OC | 14.5
COc1cc(OC)nc(C(Sc2ccc(NC(=O)c3cccs3)cc2)c2ccccc2)n1 (configuration not stated) | 1.43
